# Over roughly 33,000 sequences, “E-score (-0.5 to 0.5)” has its median near -0.016; the highest 2% begin near 0.31. Some of the results follow.
# Molecular target: Cst6 (UniProt P40535)
# Experiment: PBM E-score (8-mer binding enrichment) (E-score (-0.5 to 0.5)); higher = stronger / more preferred TF binding; most listed sequences are background and not binding sites
# Conditions: protein concentration: 200 nM; construct: GST-DNA-binding domain
# How it was run: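 Masliner-normalised scans of fluorescent anti-GST signal were the basis for scoring. That signal came from GST-tagged yeast transcription factors applied at about 100-200 nM to double-stranded universal all-10-mer Agilent arrays on fresh or once-stripped slides. Each ungapped eight-base word, pooled with its reverse complement, received an E-score from the Universal PBM Analysis Suite.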
row,Sequence,PBM E-score
1,ATGGACTC,-0.198
2,TATAGATA,-0.0669
3,CTGGGTCA,-0.186
4,AGTGGTGG,-0.141
5,GAGCTGTA,-0.205
6,CCCTGTTA,0.0582
7,GGCGGCAC,0.0354
8,CATGTGCG,0.0289
9,AAATAAAT,0.371
10,CGTCACTC,0.445
11,TCACGCAA,0.375
12,AGGGGCTA,-0.209
13,CGTGCCAA,-0.0861
14,TGCTCGAA,0.0655
15,CCCTAAAC,-0.276
16,CGCGAGCA,-0.247
17,ATAGAATG,0.182
18,GTTTCTGA,0.221
19,AGACTAAC,-0.0674
20,ACCGTAAC,-0.0255
21,AACCAGAT,-0.0219
22,CGGACCAA,-0.0116
23,GGGAGTTA,-0.134
24,CGGGTCTC,-0.105
25,CTAAACGC,0.159

row,Sequence,PBM E-score
1,GCATGGGC,-0.152
2,ATTTCTGA,0.0722
3,TACCACCA,-0.157
4,AAGCCCCC,-0.414
5,ATACTTAG,-0.0181
6,GGCCTGCA,-0.378
7,AGTTTTCG,0.117
8,GGGGCAAC,-0.306
9,CCCTCATA,-0.146
10,CAATCCCC,-0.123
11,AGACCTAA,-0.182
12,TCTAGAAA,0.0203
13,TAATACGA,0.102
14,CTCTATAC,-0.125
15,AGCGCTAA,0.2
16,AAGTTAAG,-0.0646
17,ATTAGTGG,0.101
18,ACCGTTTA,0.138
19,ATACTCAA,0.225
20,CTCCAACA,-0.0106
21,CATACGAC,0.0917
22,CATTAGGC,-0.0705
23,AGTTCAAC,0.0452
24,CATGCCGA,0.0855
25,AGTCTACA,-0.128

row,Sequence,PBM E-score
1,CAACTGTG,-0.0636
2,AGGGGGCG,-0.302
3,ACCTTCCA,-0.0265
4,AGGGCTTA,-0.194
5,ACGACCTA,-0.115
6,ATGCAGTG,0.0501
7,AATTCGCT,0.238
8,AGCGTGAG,-0.0329
9,AATGTGGT,0.116
10,CGGACTCA,-0.149
11,TAACAAGA,0.0653
12,AATAACCC,0.0003
13,GGACTCCC,-0.335
14,AAATACAG,0.0865
15,GATATGAC,0.273
16,AATAGTCA,0.115
17,AGCAGGCC,-0.287
18,AACGTCTC,-0.0757
19,CTACGCTA,-0.0928
20,ATTTAAGG,0.0163
21,TGAGGGAA,-0.0338
22,AATCATGG,0.0769
23,ATTAATAA,0.223
24,ATCTCCGG,-0.108
25,ATCCTATG,-0.131

row,Sequence,PBM E-score
1,AACGAGCA,-0.0858
2,GCTCCAAA,-0.111
3,ATAATAGC,0.0648
4,CAACGCAC,-0.00354
5,CTAGTCTC,-0.14
6,TACACGTA,0.262
7,AATGAGGT,0.287
8,CCCTACAC,-0.182
9,CGTCATCA,0.487
10,CTGTGAGC,0.135
11,ATCTCGAA,0.137
12,ATTTCTGG,0.0967
13,GGAGGATA,-0.142
14,CAAACTTC,0.177
15,AGGTACTA,0.0656
16,CCCTGGGC,-0.223
17,CCGGGGCC,-0.296
18,CCCCCCCC,-0.414
19,TCGAGACA,-0.131
20,AAATGACA,0.298
21,ATTCCTGA,-0.0224
22,CTGCTACA,-0.0466
23,CGCGGAGA,-0.0412
24,CCGTGTCA,0.0651
25,TCGACTAA,0.0566

row,Sequence,PBM E-score
1,AAGGATCG,0.0512
2,CCCACAAG,-0.167
3,CAAGGAGC,-0.0255
4,CATGACTA,0.0239
5,AATTAATG,0.174
6,ACCTATCC,0.0003
7,CACTTAGC,-0.141
8,ACTTGTGG,-0.0826
9,AAATTTTC,0.079
10,CCTGTTCA,-0.157
11,ATTGTGGC,-0.0113
12,AAACGACC,-0.114
13,AAACCTCA,-0.013
14,CGTCCAGC,-0.261
15,GCATGAGC,-0.0643
16,ACACAGGA,-0.155
17,CCGTAGTC,-0.277
18,GAATGAGC,0.0955
19,GAGCTGGC,-0.167
20,GAGGACGC,-0.26
21,AACCCTAG,-0.264
22,TGTCGCAA,-0.0273
23,GTCCGATA,-0.234
24,CACGGACC,-0.0301
25,AAAACAGC,-0.0126

row,Sequence,PBM E-score
1,CCCCGGTA,-0.322
2,CACCCCCC,-0.355
3,AGTATCCG,-0.00831
4,ATATCCGA,0.133
5,ACGGAGTC,-0.0457
6,CCGTGCAC,0.0355
7,AAATGCCA,-0.00289
8,GGCGCGAC,0.209
9,AGAAAGTA,0.205
10,CCTCCCCC,-0.338
11,CATCGAGG,-0.113
12,AGTGCCCC,-0.169
13,GTGCTCAA,0.0979
14,ACCCACTA,-0.116
15,TAGGGTAA,0.0225
16,ACGTGAAA,0.234
17,CGCCATTC,0.00749
18,ATCATGAT,0.261
19,ACGTCAAG,0.373
20,AAGGCACA,0.185
21,GGTCATAA,0.213
22,CTCCGTTA,-0.0151
23,AATCAATC,0.229
24,GATGTTAA,0.183
25,ACAGATAA,0.0508

row,Sequence,PBM E-score
1,AGCGTACC,-0.157
2,CCCGAATC,-0.283
3,GTATGCGA,0.142
4,TCGCCTCA,0.0864
5,TCTCTCCA,-0.0706
6,TCCCAGAA,-0.0898
7,CCTTACTA,0.072
8,ACACTGTA,-0.00031
9,ATTATTTA,0.305
10,ATATTCGA,-0.111
11,ACGTGTAA,0.28
12,AAGCGCAG,-0.0668
13,CAAGGACC,-0.239
14,ATCCTCCC,-0.307
15,CATTACCA,0.138
16,AGGCGGGG,-0.116
17,GCTTTGAA,-0.0304
18,TGATCCCA,0.0272
19,ATGTAGTC,0.13
20,CACTACAG,0.0653
21,GGTAACCA,-0.124
22,CGGAGTAC,-0.307

# Source: the supplement of paper PMC3334620
